# Assay results published in PubChem BioAssay AID686970 (National Center for Advancing Translational Sciences (NCATS), 2013).
# Out of some 360,000 compounds screened, about 6,000 (1.7%) were called active. The shares of active, inactive and inconclusive entries below differ from those in the screen. The call rests on the fitted dose curve; in most records, active means well fitted cell-killing curve with a large enough effect; inconclusive means small, poorly fitted or top-dose-only effect, or effect the other way; inactive means flat fitted curve, though single readings scatter. No potency is given beside an inconclusive call; the fits are too rough.
# Test: qHTS for induction of synthetic lethality in tumor cells producing 2HG: qHTS for the HT-1080-NT fibrosarcoma cell line;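 further: NT is the 2HG producing partner of a matched IDH1 knockdown line; nearly all actives have a fitted effect of over 55% in size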;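 on activity, negative = less viability: 0% = DMSO-treated cells and -100% = media-only wells without cells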
# Conditions: HT-1080-NT fibrosarcoma viability, CellTiter-Glo ATP luminescence, 48 h; activity, negative = less viability: at 46.1 µM (top of the series) unless noted
# Outline: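 Viability of the 2HG-overproducing fibrosarcoma line after 48 hours of compound exposure at 37 degrees C was determined by luminescence with CellTiter-Glo, and concentration-effect curves were then fitted and categorized.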
# Potency means the concentration at half of the fitted maximal effect; tags describe the fitted curve by direction and shape.
Compound,Potency,"activity, negative = less viability"
CCCc1c(CC)c(=N)c2ccccc2n1C,"inconclusive [cytotoxic, single point]",–
COc1nc(NC2CCCCC2)nc(N2CCCCCC2)n1,"inconclusive [cytotoxic, single point]",–
O=C(NNc1ccccc1)C(CCO)C(=O)NNc1ccccc1,active: 7.31 µM,–
CCOc1ccccc1OCCCC(=O)N1CCN(S(=O)(=O)c2ccccc2C#N)CC1,–,inactive: 0.472%
O=C(NCc1cccnc1)c1ccc(COc2ccc3c(c2)CCC3)o1,"inconclusive [cytotoxic, single point]",–
COc1ccccc1CN(Cc1cc2c(C)ccc(C)c2[nH]c1=O)Cc1nnnn1Cc1ccco1,–,inactive: -7.9%
O=C(c1ccccc1)N1CCC(c2nc(-c3ccc(S(=O)(=O)NCC4CCCO4)cc3)no2)CC1 (stereo not given),"inconclusive [cytotoxic, partial curve]",–
O=c1c2ccccc2nc(/C=C/c2ccccc2)n1CCc1ccccc1,–,inactive: 22.6%
COc1ccc(NC(=O)C2CCN(S(=O)(=O)c3ccc4c(c3)NC(=O)C(C)S4)CC2)cc1 (stereo not given),"inconclusive [cytotoxic, single point]",–
O=C(Nc1cccc(Cl)c1)Nc1ccccc1NS(=O)(=O)c1cccs1,"inconclusive [cytotoxic, partial curve]",–
COc1ccccc1CNS(=O)(=O)c1c(C)[nH]c(=O)[nH]c1=O,–,inactive: -0.458%
Cc1ccc(OS(=O)(=O)c2ccc(-c3csc(C)n3)s2)c(C)c1,"inconclusive [cytotoxic, single point]",–
Cc1cccc(N2CCN(C(=O)c3ccc4ncsc4c3)CC2)c1C,active: 2.59 µM,–
Cc1cccc(CC(Cc2nc3ccccc3[nH]2)c2nc3ccccc3[nH]2)c1 (stereo not given),active: 18.4 µM,–
O=C(CSc1c2c(nc3ccc(Cl)cc13)CCCC2)NCc1ccco1,"inconclusive [cytotoxic, single point]",–
Cc1ccc(C(=O)N/N=C/C=C/c2ccccc2)o1,"inconclusive [rising, full curve]",–
COc1ccc(CC(=O)NCCc2cnc[nH]2)cc1,–,inactive: -3.23%
CCOC(=O)N1CCN(c2c(NCc3ccccc3Cl)c(=O)c2=O)CC1,"inconclusive [cytotoxic, single point]",–
C[C@@H]1CN([C@@H](C)CO)C(=O)CCCn2nncc2CO[C@@H]1CN(C)C(=O)Nc1ccccc1,–,inactive: 4.17%
O=[N+]([O-])c1ccc2c(OCc3nnc(-c4ccccc4Br)o3)ncnc2c1,"inconclusive [cytotoxic, single point]",–
